Screen size: about 46,000 compounds; about 60 (0.1%) were called active. Not shown: some 3% with an inconclusive outcome. Calls come from the whole dose curve; as a rule, active = well fitted inhibition curve with a large enough effect; inconclusive = small, poorly fitted or top-dose-only effect; inactive = no such curve, though single readings can be large or run the other way. This is one part of the list.
Experiment: Primary qHTS assay for Inhibitors of ovarian cancer metastasis using an organotypic tumor microenvironment (TME) model.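 For activity change, negative = inhibition: plate controls were DMSO wells for no effect and tomatine positive control wells for full effect.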 Note: nearly all actives have a fitted effect of over 65% in size.
Details: SKOV3ip1-GFP adhesion/invasion on 3D omental model, fluorescence; series mostly up to 45.8 µM; activity change, negative = inhibition: at the top concentration
Summary of the method: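 A 3D layer of primary human omental fibroblasts, mesothelial cells, fibronectin and collagen I, grown 48 hr, received SKOV3ip1-GFP cells in serum-free medium plus compounds at 0.36-46 umol/L. After 2 hr RT and 16 hr 37 C, fixed adherent GFP cells were counted; normalized to DMSO and tomatine.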

Activity change, negative = inhibition, inactive:
COC(c1ccccc1)(c1ccccc1)[C@H](Oc1nc(C)cc(C)n1)C(=O)O 4.58%
Cc1ccccc1CSc1nc2c(sc3ccccc32)c(=O)n1CCCOC(C)C 1.77%
O=c1c(N2CCN(c3cccc(C(F)(F)F)c3)CC2)csc2ccc(Cl)cc12 2.34%
COc1cc(OC)cc(N2CCN(S(=O)(=O)c3ccc(-n4cnnn4)cc3)CC2)c1 -2.17%
Cc1cccc(CNC(=O)CCn2ccc3cc(S(=O)(=O)N4CCCC4)ccc32)c1 -3.57%
COc1ccc(OC)c(CCNC(=O)c2cnn(-c3ccccc3)c2C2CCN(C(=O)OC(C)(C)C)CC2)c1 13.2%
CCSc1nnc2c(n1)OC(CC)N(C(C)=O)c1ccccc1-2 (stereo not given) 10.3%
Cc1ccc(-n2nnnc2CNC(=O)C(C)C)cc1C -54%
CC(=O)c1cccc(NC(c2ccc(F)cc2)c2nnc(-c3ccccc3)o2)c1 (stereo not given) -1.06%
O=C1CC(c2ccccc2)Cc2[nH]c(=O)c(-c3nc(-c4ccc(Cl)cc4)cs3)cc21 (stereo not given) -27.2%
Cc1nn(C)c2c1c(-c1ccccc1)cc(=O)n2C(C)C(=O)NCc1ccc(F)cc1 (stereo not given) 0.0038%
CC(O)C1C(=O)N2C(C(=O)O)=C(SC3CNC(C(=O)N(C)C)C3)C(C)C12 (stereo not given) -4.41%
CCOCc1cc(CN2CCN(c3cccc(Cl)c3)CC2)c(O)c2ncccc12 -9.21%
CCc1ccccc1NS(=O)(=O)c1ccc2c(c1)OCC(C(=O)N1CCCC1)O2 (stereo not given) 21%
CCN(Cc1ccccc1)Cc1c(O)ccc2c(=O)c(-c3ccccc3Cl)c(C(F)(F)F)oc12 1.28%
CCc1ccc(Nc2nc(N)nc(CSc3nc4ccccc4s3)n2)cc1 -15%
COc1ccc(OC)c(C2c3c(oc4ccc(C)cc4c3=O)C(=O)N2CCCN(C)C)c1 (stereo not given) -6.07%
O=C(NCc1cccc(F)c1)c1cccc(NC(=O)c2nsc3ccccc23)c1 -2.48%
O=C(NCCC1=CCCCC1)c1ccc2c(c1)ncn2-c1ccc(F)c(F)c1 -7.55%
CC(=O)c1ccc(N2CCN(S(=O)(=O)c3ccc4[nH]c5c(c4c3)CCCC5)CC2)cc1 -2.91%
CCC(C(=O)Nc1cc(-c2nc3cccnc3s2)ccc1C)c1ccccc1 (stereo not given) 1.42%
CCOc1ccccc1C1CC(=O)Oc2c1c(=O)n(C)c1ccccc21 (stereo not given) 3.76%
CCOc1ccc(-c2nnc(SCC(=O)NCc3ccc(C)cc3)nc2-c2ccc(OCC)cc2)cc1 -7.11%
Fc1ccc(-c2cn3cc(Cc4ccc(Cl)cc4)sc3n2)cc1 10.3%
CCOC(=O)CSc1nc2ccc(NC(=O)c3ccccc3F)cc2s1 6.49%
COC(=O)c1ccc2c(=O)n(CCCCCC(=O)N3CCN(c4ccc(OC)cc4)CC3)c(=O)[nH]c2c1 10.8%
CCOC(=O)c1sc(NC(=O)c2cc(-c3ccc(F)cc3)on2)c(C(=O)OCC)c1C 0.176%
Cc1ccc(NC(=O)C2CCCN(S(=O)(=O)c3cccc4cccnc34)C2)c(C)c1 (stereo not given) 13.4%
Cc1c(CC(=O)NCCc2ccc(Cl)cc2)c(=O)oc2c(C)c3occ(C(C)(C)C)c3cc12 6.57%
CCOC(=O)c1c(-c2ccccc2)csc1NC(=O)c1cc(-c2ccc(Cl)cc2)on1 -3.24%
CC1=C(C(=O)Nc2ccc(C)cc2C)C(c2ccccc2)n2ncc(C(=O)Nc3ccccc3)c2N1 (stereo not given) 1.19%
Cc1ccccc1-c1nc2cc(NC(=O)COc3ccc(F)cc3)ccc2o1 -1.59%
COC(=O)C1=C(C)NC(C)=C(C(=O)OCCN2CCN(C(c3ccccc3)c3ccccc3)CC2)C1c1cccc([N+](=O)[O-])c1 (stereo not given) -6.15%
CCOc1ccc(CNC(=O)c2ccc(Sc3ccc(Cl)cc3)c(NC(C)=O)c2)cc1OC 1.63%
O=c1c(N2CCc3ccccc3C2)csc2ccccc12 -14.9%
Cc1ccc(C2CCN(C(=O)c3cnn(-c4ccc(C)cc4)c3C3CCN(C(=O)OC(C)(C)C)CC3)C2)cc1 (stereo not given) 6.13%
CC1=C(C(=O)Nc2cccnc2)C(c2ccccc2)n2nc(-c3ccc(O)cc3)nc2N1 (stereo not given) -5.21%
CC(=O)N1CCCc2cc(S(=O)(=O)N3CCCC(C(=O)Nc4cc(Cl)ccc4C)C3)ccc21 (stereo not given) -5.87%
COc1ccc(NC(=O)c2ccc3c(=O)n4nc(Nc5cccc(Cl)c5C)sc4nc3c2)cc1 0.528%
CCOc1ccc(-c2nc3c(c(SCC(=O)N4CCCCC4)n2)Cc2ccccc2O3)cc1 3.33%
O=C(C1CCCN(S(=O)(=O)c2ccc(Br)s2)C1)N1CCN(c2ccccc2)CC1 (stereo not given) 11.6%
CNC(=O)C1CCC(Cn2c(=O)c3sccc3n(CC(=O)NCc3ccc(F)cc3)c2=O)CC1 (stereo not given) 10.4%
CCOc1ccccc1NS(=O)(=O)c1ccc(-c2cnc(C3CC3)o2)cc1 9.53%
Cc1ccc(-c2csc(=Nc3ccc(F)cc3)n2Cc2ccc3c(c2)OCO3)cc1C -4.7%
Cc1c(Cl)cccc1NC(=O)c1ncn(-c2ccccc2)n1 -5.78%
Cc1ccc(NS(=O)(=O)c2ccc3c(c2)CCCN3C(=O)C2CCC2)cc1Cl -3.96%
Cc1ccc(NC(=O)CCS(=O)(=O)c2cc3c4c(c2)CCN4C(=O)CC3)c(C)c1 22.1%
O=C(Nc1nnc(S(=O)(=O)Nc2ccccc2)s1)c1ccccc1Cl -5.11%
COCCNc1nc2c(S(=O)(=O)c3ccc(C)c(C)c3)nnn2c2ccc(Cl)cc12 6.66%
Cc1nc2nncn2c(NCc2ccc(F)cc2)c1C 5.44%
COc1cc(OC)cc(C(=O)Nc2ccc(S(=O)(=O)Nc3ncccn3)cc2)c1 -9.4%
CCCCN(C)C(=O)C1CCC(CNS(=O)(=O)c2ccc(Cl)cc2)CC1 (stereo not given) -0.0155%
Cc1ccc(CS(=O)(=O)c2ncc(Cl)c(C(=O)Nc3nc4ccc(F)cc4s3)n2)cc1 -9.4%
CCOC(=O)c1c(S(=O)(=O)NCC(=O)NCc2cccc(C)c2)c(C)n(C)c1C 1.43%
Cc1ccc(-c2nc3c(c(SCC(=O)Nc4ccccc4Cl)n2)Cc2c(CO)cnc(C)c2O3)cc1 16.2%
O=C(NCc1ccc(F)cc1)c1c(O)nc2ccccn2c1=O -28.3%
Cc1cc(Nc2cccc(C(F)(F)F)c2)nc2ccc(NC(=O)c3ccc(=O)[nH]c3)cc12 -4.24%
CCOc1ccc(-n2c(=O)c3c4c(sc3n(CC(=O)Nc3cccc(C(F)(F)F)c3)c2=O)CCCCC4)cc1 -16.6%
O=C(COc1ccccc1)Nc1nnc(S(=O)(=O)N2CCCC2)s1 2.98%
Cc1ccc2c(=O)cc(CSCC(=O)Nc3nnc(C)s3)[nH]c2c1 -19.3%
COc1ccc(Br)cc1C1Sc2ccccc2NC2=C1C(=O)c1ccccc12 (stereo not given) -0.974%
COc1ccc(NC(=O)COc2ccc(S(=O)(=O)NC3CCCCC3)cc2)cc1OC -4.08%
O=C(Nc1ccccc1)c1ccc(Br)c(S(=O)(=O)N2CCCCC2)c1 3.21%
COc1ccc(NC(=O)C2CCC(CNS(=O)(=O)c3ccc(Br)s3)CC2)cc1OC (stereo not given) -19.6%
CCCC(=O)OCc1cnc(C)c2oc(=O)c(C(=O)Nc3ccccc3)cc12 -15.3%
COc1ccc(OC)c(NC(=O)CSc2nc3ccccc3nc2N2CCCCC2)c1 -0.94%
CCc1ccccc1NC(=O)c1ccc2c(c1)N(Cc1cc(C)ccc1C)C(=O)c1ccccc1S2(=O)=O -5.39%
COC(=O)c1cc2sccc2n1Cc1nc(-c2ccc(Cl)cc2)oc1C 7.8%
Cc1cc(C)n(C(C)CC(=O)NCc2ccc(N(C)C)cc2)n1 (stereo not given) 3.82%
CCOCCCn1c(SCC(=O)Nc2ccc(C)cc2)nc2ccccc2c1=O 37.2%

outcome, inactive:
COc1ccc(-c2cn3nc(N4CCCC(C(=O)NCc5ccccc5Cl)C4)sc3n2)cc1 (stereo not given)
CCN1CCN(C(c2cccc(F)c2)c2c(O)cc(C)n(Cc3ccco3)c2=O)CC1 (stereo not given)
CCCN(CCC)C(=O)CSc1nc2sc3c(c2c(=O)n1-c1ccccc1)CCN(C(C)=O)C3
CC(=O)Nc1cccc(NC(=O)c2c(-c3ccccc3)c(-c3ccccc3)nn(C)c2=O)c1
O=c1c2c(-c3ccc(Cl)cc3)ccnc2[nH]n1-c1ccccc1
Cc1ccc(Cl)cc1NC(=O)Cn1c(=O)c2ccccc2n2nncc12
CCC(CC)C(=O)Nc1cccc(-c2nc3ccccc3s2)c1
CCc1ccc(-n2nc3ccc(NC(=O)c4ccc(C#N)cc4F)cc3n2)cc1
COc1cccc(CNC(=O)C2CCN(c3nnc(-n4c(C)ccc4C)s3)CC2)c1
O=C(NCCc1ccccc1)c1ccc2c(c1)N(Cc1ccccc1F)C(=O)c1ccccc1S2=O (stereo not given)
CC(=O)Nc1ccc(NC(=O)c2oc3ccc4c(c3c2C)C(=O)CC(C)(C)O4)cc1
Cc1ccc(-c2ccc(=O)n(CC(=O)Nc3cccc(C#N)c3)n2)cc1
Cc1ccc(NC(=O)CN2C(=O)C3(SCC(=O)N3c3cccc(Cl)c3)c3ccccc32)cc1C (stereo not given)
Cc1nn(-c2ccccc2)c2sc(C(=O)Nc3ccccc3Br)cc12
COc1ccc(CCNC(=O)CSc2nc(-c3ccc(F)cc3)cc(C(F)(F)F)n2)cc1OC
Cc1cccc(C(=O)Nc2nnc(S(=O)(=O)N(C)Cc3ccco3)s2)c1
O=C(NCc1ccc2c(c1)CCN2C(=O)c1ccc(Cl)cc1)c1cccc(F)c1
CCc1noc(-c2ccc(N3CCCCC3C)c([N+](=O)[O-])c2)n1 (stereo not given)
CCC(Oc1ccccc1)C(=O)Nc1cc(-c2ccccc2OC)nn1-c1ccccc1 (stereo not given)
CN(Cc1ccccc1)c1ncnc2onc(-c3ccc(F)cc3)c12
CCCCOc1cccc(NC(=O)CSc2nnc(C)s2)c1
O=C(OCC1CCCO1)c1ccc2c(c1)N(Cc1ccccc1Cl)C(=O)c1ccccc1S2(=O)=O (stereo not given)
O=C(Nc1ccc2oc(-c3ccc4ccccc4c3)nc2c1)c1ccccc1F
O=C(Nc1cccc(Cl)c1)c1cnc[nH]1
CC(NC(=O)CCNS(=O)(=O)c1cccc2nsnc12)c1ccccc1 (stereo not given)

Source: PubChem BioAssay AID1963576 (National Center for Advancing Translational Sciences (NCATS), 2024)
